The structures appear in SMILES notation. The campaign covered roughly 52,000 compounds. About 1,700 (3.3%) were called active. Cut-off read from the data, not from the text of the source: active = survival mostly below about 52% (no sharp cut-off); inactive = mostly above about 56%. The list shows a part of the results.

The test deals with Wild type. Briefly: S. aureus survival, RN4220 and DeltatarO strains – OD600, teichoic acid synthesis inhibitors, primary screen (AID 463173). The note with it: S. aureus RN4220 wild type/DeltatarO growth, OD600, 18 h, stronger effect = lower value, screened at 18.75 µg/mL (by protocol).
For `CN1CCN(C(=O)c2cnn(-c3ccc(F)cc3F)c2C2CCN(C(=O)OC(C)(C)C)CC2)CC1`, the survival was inactive: 87%.
For `COc1ccc(NC(=O)Nc2nnc(N3CCCC3)s2)cc1`, the survival was inactive: 80%.
For `Cc1cc(C)cc(N(CC(=O)NCCc2ccc(Cl)cc2)S(=O)(=O)c2c(C)noc2C)c1`, the survival was inactive: 85%.
The value for `Cc1ccc2c(c1)c1c(c(=O)n(-c3ccccc3)c(=O)n1Cc1ccccc1C)n2C` was inactive: 68%; that for `Cc1ccc(NC(=O)c2c(C)oc3ccc(O)c(CN4CCOCC4)c23)cc1` was inactive: 81%.
In the case of `Cc1ccc2c(=O)cc(C(=O)N(Cc3ccc(C(C)(C)C)cc3)C3CCS(=O)(=O)C3)oc2c1` (configuration not stated), the survival is inactive: 68%.
As to `Oc1ccc(-c2nc3ccc(Cl)cn3c2Nc2ccc(Cl)cc2)cc1`, the survival was inactive: 20%.
In the case of `CCOC(=O)/C(C#N)=C\c1ccc(N(C)C)cc1` it was inactive: 123%; in that of `O=C(c1cc2c(Cl)nc3ccccc3c2s1)N1CCCCC1`, inactive: 58%; in that of `Cc1ccccc1NC(=O)Cn1nc(-c2ccccc2)nc(Cc2ccccc2)c1=O`, inactive: 70%.
Regarding `Cc1ccc(CNS(=O)(=O)c2cnc(N)nc2)cc1`, the survival is inactive: 81%.
Take `COc1ccc(Cn2ccc3nc(C)c(C(=O)NCc4ccc(SC)cc4)cc3c2=O)cc1`: the survival was inactive: 79%.
For the compound `CCc1ccc2ncc3c(-c4ccc(C)cc4)nn(CC(=O)NCc4ccccc4)c3c2c1`, the survival is inactive: 65%.
In the case of `COc1ccc(CNC(=O)CSc2nnc(C)c3c(C)n(-c4ccccc4)nc23)c(OC)c1`, the survival is inactive: 81%.
In the case of `COc1ccc(Nc2nc(Cl)nc(NCCO)n2)cc1` it was inactive: 107%; in that of `O=C(CSc1nc2ccccc2n1Cc1cccc(F)c1)NCc1ccccc1`, inactive: 72%.
Turning to `COc1ccc(-c2nc3sc(CCNC(=O)C(=O)Nc4ccc(OC)c(OC)c4)c(C)n3n2)cc1`, the survival is inactive: 69%.
Take `COc1ccc(Br)cc1Cn1nnc(C(=O)Nc2cccc(SC)c2)c1N`: the survival was inactive: 68%.
With `Cc1ccccc1Cn1c2ccccc2c2cnn(CC(=O)NC3CCCCCC3)c(=O)c21`, the survival is inactive: 88%.
As for `CC(C)CCNC(=O)Cn1nc(N2CCN(c3ccccc3)CC2)ccc1=O`, the survival is inactive: 70%.
As for `CCOC(=O)c1sc2ncn(CC(=O)Nc3ccc(OC)c(Cl)c3)c(=O)c2c1C`, the survival is inactive: 78%.
The value for `CN(CC(=O)Nc1cccc(F)c1)S(=O)(=O)c1ccc2c(c1)n(C)c(=O)c(=O)n2C` was inactive: 100%; that for `CN1CCN(C(=O)c2ccc3c(c2)N(Cc2ccc(C(F)(F)F)cc2)C(=O)c2ccccc2S3)CC1` was inactive: 99%.
The value for `Cc1ccc(NC(=O)c2ccc(CN3CC(=O)N4CCCCC4C3=O)cc2)c(Cl)c1` (configuration not stated) was inactive: 133%; that for `COc1ccc(S(=O)(=O)NCc2nc(-c3ccccc3)no2)cc1` was inactive: 77%.
In the case of `CSc1cccc(NC(=O)c2cc3c(COC(C)=O)cnc(C)c3oc2=O)c1` it was inactive: 134%; in that of `CC(=O)c1cccc(NC(=O)CSc2ncc3c(n2)-c2cc(Cl)ccc2N(Cc2ccccc2)S3(=O)=O)c1`, inactive: 63%; in that of `COc1cc(CNC(=O)c2cc3n(n2)CCCN(Cc2cccc(F)c2)C3=O)cc(OC)c1OC`, inactive: 71%.
`NC(=O)C1CCN(C(=O)CC(c2ccccc2)c2ccccc2)CC1`: the survival was inactive: 104%.
Consider `O=C(CC(c1cccs1)N1Cc2ccccc2C1=O)Nc1ccc(F)cc1` (configuration not stated), for which the survival was inactive: 91%.
The value for `COc1ccc(-n2nc3c(N4CCCC(C(=O)NCc5ccccc5C)C4)nnc(C)c3c2C)cc1` (configuration not stated) was inactive: 72%; that for `O=C(NCCn1cc(SCc2ccc(C(F)(F)F)cc2)c2ccccc21)c1cccs1` was inactive: 108%.
As to `N#CCOc1nc(OCC#N)nc(OCC#N)n1`, the survival is active: -1%.
For `Cc1nnc(SCC(=O)NCc2cccc(F)c2)c2nn(-c3ccccc3)c(C)c12`, the survival is inactive: 76%.
On to `Cc1cccc(NC(=O)CSc2nc(=O)n(CCN3CCOCC3)c3c2CCC3)c1`, for which the survival is inactive: 88%.
As for `CNC(=O)C1CCC(Cn2c(=O)c3sccc3n(CC(=O)Nc3ccc(C)cc3C)c2=O)CC1` (configuration not stated), the survival was inactive: 79%.
Consider `Cc1ccc2nc(-c3ccc(N4CCOCC4)cc3)c(Nc3ccccc3C)n2c1`, for which the survival is inactive: 73%.
In the case of `O=C(CN1C(=O)COc2ccc(S(=O)(=O)NC3CCCC3)cc21)Nc1ccc(F)c(Cl)c1` it was inactive: 146%; in that of `Cc1ccc(-n2ncc(C(=O)NCCN3CCc4ccccc4C3)c2C2CCN(C(=O)OC(C)(C)C)CC2)c(C)c1`, inactive: 75%.
For `Cc1[nH]c2ccccc2c1C1(O)C(=O)N(Cc2ccccc2)c2ccc(Br)cc21` (configuration not stated), the survival is active: 14%.
For the compound `CN(c1nnc(NC(=O)Nc2ccc(Br)cc2)s1)C1CCCCC1`, the survival was inactive: 62%.
With `COc1ccccc1CNc1ncnc2onc(-c3ccc(Cl)cc3)c12`, the survival was inactive: 86%.
As to `COc1cccc(NC(=O)CN2C(=O)COc3ccc(S(=O)(=O)N4CCOCC4)cc32)c1`, the survival is inactive: 93%.
Turning to `COC(=O)COc1ccc(S(=O)(=O)N2CCN(c3ccccc3F)CC2)cc1Cl`, the survival is inactive: 115%.
The value for `Cc1ccc(NC(=O)Nc2csc3c2CCCC3)c(C)c1` was inactive: 83%; that for `CCCS(=O)(=O)NCCc1sc2nc(-c3ccc(Cl)cc3)nn2c1C` was inactive: 81%.
For the compound `CCOC(=O)c1c(NC(=O)c2cc(=O)c3c(C)cc(C)cc3o2)sc(C)c1C`, the survival is inactive: 86%.
In the case of `NC(=O)C1CCN(C(=O)c2ccccc2NC(=O)c2nsc3ccccc23)CC1`, the survival was inactive: 134%.
With `COc1ccccc1Nc1nn2c(=O)c3ccc(C(=O)NC4CCCCC4)cc3nc2s1`, the survival was inactive: 83%.
The value for `CCOc1ccc(N(CC(=O)NCc2ccc(C)cc2)S(=O)(=O)c2c(C)[nH]c(=O)[nH]c2=O)cc1` was inactive: 78%.
In the case of `Brc1ccc(-c2csc(-c3nc(-c4ccc(Br)s4)cs3)n2)cc1` it was inactive: 78%; in that of `CCOC(=O)N1CCc2c(sc(NCc3ccc(N(C)C)cc3)c2C(=O)Nc2ccccc2OCC)C1`, inactive: 70%; in that of `O=C(Oc1ccccc1OC(=O)N1CCCCC1)N1CCCCC1`, inactive: 101%.
`CCN(CC)CCNC(=O)Cn1cnc2sc(C)c(S(=O)(=O)N3CCN(c4ccccc4OC)CC3)c2c1=O`: the survival was inactive: 72%.
As for `CCN1CCN(C(c2cccc(OC)c2)c2c(O)cc(C)n(Cc3ccco3)c2=O)CC1` (configuration not stated), the survival is inactive: 128%.
Consider `CCc1ccc(NC(=O)c2sc3nc(-c4ccccc4)cn3c2C)cc1`, for which the survival is inactive: 153%.
`CC(NC(=O)c1ccc(Cn2c(SCc3ccccc3)nc3cccnc32)cc1)c1ccccc1` (configuration not stated): the survival is inactive: 59%.
In the case of `CC(CCc1ccccc1)NC(=O)Cn1ncc2c3ccccc3n(Cc3cccc(Cl)c3)c2c1=O` (configuration not stated) it was inactive: 87%.
Regarding `COc1ccc(CN(C(=O)c2ccc(OCC(C)C)cc2)C2CCS(=O)(=O)C2)cc1` (configuration not stated), the survival was inactive: 105%.
In the case of `O=C(Nc1ccccc1C(F)(F)F)N1Cc2ccccc2Oc2ncccc21`, the survival is inactive: 45%.
As to `COc1cccc(C2C=C(c3ccc(C)cc3)Nc3c(C(=O)Nc4ccc(F)cc4)cnn32)c1OC` (configuration not stated), the survival was active: -3%.
In the case of `CCOc1ccc(NC(=O)CSc2oc(-c3ccco3)nc2S(=O)(=O)c2ccc(Cl)cc2)cc1` it was inactive: 136%.
In the case of `CCOC(=O)c1cc(-c2ccc(OC)cc2)n(CCC(=O)NC2CCC(C)CC2)c1C` (configuration not stated) it was inactive: 73%.
As for `COc1ccc(NC(=O)CSc2nc(-c3ccccc3)c3ccccc3n2)cc1`, the survival was inactive: 97%.
For `CCOc1ccc(-c2n[nH]c3c2C(c2cccs2)N(c2ccc(Br)cc2)C3=O)cc1` (configuration not stated), the survival was inactive: 83%.
For the compound `CC(C)C(c1nnnn1Cc1ccccc1)N1CCCc2ccccc21` (configuration not stated), the survival is inactive: 122%.
Regarding `CCc1cccc(-n2nnc(-c3nc(-c4ccc5c(c4)OCO5)no3)c2C)c1`, the survival was inactive: 82%.
Consider `Cc1cccc(C(=O)NCc2nnc(SCC(=O)Nc3ccccc3F)n2-c2ccccc2)c1`, for which the survival was inactive: 69%.
The value for `COc1ccc(N2CCN(C(=O)Nc3ccc(Cl)cc3)CC2)cc1` was inactive: 140%.
In the case of `CC(=O)N1c2ccc(S(=O)(=O)NCC3CCC(C(=O)Nc4cccc(F)c4)CC3)cc2CC1C` (configuration not stated) it was inactive: 104%; in that of `COc1ccc(S(=O)(=O)N2CCN(C(=O)c3cc(-c4ccc(Br)cc4)n[nH]3)CC2)cc1OC`, inactive: 89%.
Take `CCN(CC)C(=O)c1ccc2nc(N)sc2c1`: the survival is inactive: 112%.
In the case of `CCN(CC)c1nc(Nc2ccc(OC)cc2)nc(Nc2ccc(OC)cc2)n1` it was inactive: 101%; in that of `O=C(NC12CC3CC(CC(C3)C1)C2)c1ccco1`, inactive: 111%.
Take `CCOc1ccc(NCc2cccn2-c2nnc(N3CCC(C(=O)NCCc4ccc(OCC)c(OCC)c4)CC3)s2)cc1`: the survival was inactive: 71%.
The value for `CC1CN(C(=O)Nc2ccc(C(=O)NCCc3ccc(Cl)cc3)cc2)c2ccccc2S1` (configuration not stated) was inactive: 84%; that for `CCC(NC(=O)c1ccccc1)c1ccccc1` (configuration not stated) was inactive: 104%.
In the case of `COCCn1c(C)cc(O)c(C(c2ccc(OC)cc2)N2CCCCC2)c1=O` (configuration not stated), the survival was inactive: 77%.
Take `N=c1n(CCN2CCCCC2)c2ccccc2n1CC(O)c1ccc2c(c1)OCO2` (configuration not stated): the survival was inactive: 111%.
For the compound `Cc1ccccc1NC(=O)CSCn1nnc2c(=O)[nH]c(Cc3ccc(F)cc3)nc21`, the survival is inactive: 82%.
With `Cc1cccc(NC(=O)C(=O)NCC(c2cccnc2)N2CCN(Cc3ccccc3)CC2)c1` (configuration not stated), the survival was inactive: 89%.
Regarding `Cn1c(C(=O)NCCc2ccccc2)cc2cc(S(=O)(=O)N3CCCCC3)ccc21`, the survival was inactive: 73%.
Turning to `CCCC(=O)Nc1ccc2nc(SCCOc3ccccc3)sc2c1`, the survival was inactive: 92%.
As for `CCCN1Cc2cccc(C(=O)Nc3ccccc3F)c2C1=O`, the survival was inactive: 83%.
Regarding `COc1ccc(Cl)cc1NC(=O)c1c(NCc2cccnc2)sc2c1CCCC2`, the survival was inactive: 127%.
Turning to `CC(C)(C)OC(=O)N1CCC(c2c(C(=O)NCCc3ccsc3)cnn2-c2ccc(F)cc2F)CC1`, the survival was inactive: 55%.
Consider `CCOC(=O)c1c(Nc2ccc(OCC)cc2)nnc(-c2ccccc2)c1-c1ccccc1`, for which the survival was active: 2%.

For the origin of these results see PubChem BioAssay AID463173 (ICCB-Longwood Screening Facility, Harvard Medical School, 2010).
